From the supplement of paper PMC11417369
± gives the standard deviation of the averaged measurements. The list shows a part of the results.

What follows are sequences tested on PfAP2-LT AP2 domain (GST-tagged) (assay: gcPBM binding intensity (ln(normalized median fluorescence intensity)); higher = stronger DNA binding).
How it was run: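 GST-tagged P. falciparum DNA-binding domains, expressed in E. coli (about 25 μg on average), were applied for 1 h to an Agilent 4 × 180k array of primer-extended double-stranded 36-bp intergenic genomic probes plus negative controls. The binding buffer was 1× PBS with 1% milk, 0.2 mg/ml BSA, 0.5% salmon testes DNA and 0.03% Triton X-100. Bound protein was detected with Alexa488 anti-GST antibody and scanned at 488 nm. Binding intensity is the highest Masliner-normalised natural-log median intensity across replicate spots of either probe orientation.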

| Sequence | gcPBM binding intensity (ln) |
| --- | --- |
| GTATTTTTAAATGACACACACATATATATATATATA [CACACA_site1662] | 9.74 ± 0.2 |
| TTTGAACGAAAATACTCACACATATTTATAAACATT [CACACA_site5182] | 8.66 ± 0.35 |
| ATTTTTCATATATATATATTAATATATATATATTAA [CACACA_negctrl_site1681] | 8.59 ± 0.37 |
| AAAAATATATTATATGTACACACAAAATTAAGGGAT [CACACA_site8384] | 9.32 ± 0.54 |
| TGAATATTTATACATGCACACTAAAATAAAGAATCT [CACACA_site5351] | 8.92 ± 0.4 |
| TATAAATAGGCATATACACACTTTTAATATTCATAA [CACACA_site6123] | 8.77 ± 0.35 |
| ATAACAACATTTGATAAACACACAGAAGTATAAATA [CACACA_site8739] | 8.94 ± 0.49 |
| CAGTTAATGTTGGTACTTTATATAAAAATGATATGA [CACACA_negctrl_site1600] | 8.54 ± 0.45 |
| TCTTTCTCTCTTCAAAGTACATATAATATATACTTC [XGTACX_site7982] | 8.64 ± 0.45 |
| TTATTAATATTGCATGCACACTATATAATAATTGAA [CACACA_site8258] | 8.87 ± 0.34 |
| AAAATATAGTTATCAATATATAATATTTTTTTTTTA [CACACA_negctrl_site459] | 8.21 ± 0.49 |
| CATTATTATGATAGTTGTACAATTTTTATAAAAAAT [XGTACX_site4411] | 8.66 ± 0.47 |
| GAAATAGAGAAACACACACACATATATTTATGTATT [CACACA_site3967] | 9.68 ± 0.25 |
| ATAAAAATAAAAAGATGTACGTATTTTTTTTTTTTT [XGTACX_site5329] | 8.69 ± 0.36 |
| TATAAATAAATGCGTACACACTAATAAAAAAAAAAA [CACACA_site4630] | 8.98 ± 0.49 |
| AATATATTTTAATACACACACACATATATATATATA [CACACA_site5969] | 9.64 ± 0.43 |
| TTTTTTTTAAATATCACACACATATAACATATTCTA [CACACA_site7687] | 8.88 ± 0.4 |
| ATATGTATATAAATGTGTACTTATAAATATATATAT [XGTACX_site3250] | 8.99 ± 0.3 |
| TGGAAAAATAGGCACACACACATATATACCTATATA [CACACA_site4843] | 9.56 ± 0.4 |

| Sequence | gcPBM binding intensity (ln) |
| --- | --- |
| TTTTTTTTTTTTGAGTGTACTAAAATATTACCTTTT [XGTACX_site646] | 8.49 ± 0.52 |
| AATATTATAAATGATACACACTTAAAATACACCCAC [CACACA_site5498] | 9.42 ± 0.11 |
| GAATTTATTTTATTTTCACACACAAAAATAAATATC [CACACA_site8762] | 8.94 ± 0.39 |
| TTCTTTAATAAAATAATCTCAAAGAAAATTTTTTCT [GTGCAC_negctrl_site589] | 7.91 ± 0.32 |
| TTATCCATTTTAATCACACATACTTTACTTTGGAAC [CACACA_site5584] | 8.75 ± 0.45 |
| AATAAATAGATATATACACACATATATGTGTACATA [CACACA_site7476] | 9.49 ± 0.29 |
| TATAAACATATAAAAAGTACATACCAATTAATATTA [XGTACX_site967] | 8.77 ± 0.49 |
| GGATAAAATGCTACGAGTACATAAGCATTTTTCCCT [XGTACX_site7796] | 8.78 ± 0.31 |
| TATTCTGTGTATAAAAGTACAAATATTTAAATGTAT [XGTACX_site8234] | 8.69 ± 0.44 |
| AATATATTCATCATATCAATATTGTCAAGCAAACGA [TGCATGCA_negctrl_site37] | 8.77 ± 0.45 |
| TTGTATATATTAAATTGTACTTATTTTTTGTATATA [XGTACX_site3251] | 8.64 ± 0.54 |
| TATATTATTTATATTTGTACACAGCGATATGAAATA [XGTACX_site987] | 8.56 ± 0.46 |
| TACAATTTAAAACACACACACAATAATACATATATA [CACACA_site1251] | 9.74 ± 0.35 |
| ATATTATTATAAACTTCACACATTTTATGGGTTTTT [CACACA_site4631] | 8.81 ± 0.43 |
| CATAAGCACAAGCACAAGCACACATTTATATATATA [CACACA_site882] | 9.07 ± 0.46 |
| CGCATATTTTATGTTTGTACTCATATGAATATCATA [XGTACX_site4717] | 8.72 ± 0.49 |
| TTTTACAAAATAAAAATATAGAATACGGTAAATTAT [GTGCAC_negctrl_site40] | 8.59 ± 0.35 |
| TAAAAATGTGGACACACACACATATTTATATTTAAT [CACACA_site6827] | 9.18 ± 0.36 |
| TGTTGATGATATTACACACCCAATGAGAAAAGGAAT [CACACA_site2072] | 9.04 ± 0.35 |

| Sequence | gcPBM binding intensity (ln) |
| --- | --- |
| AAATAAGAGCGTAGCACACACGCATTTTATAAATGT [CACACA_site741] | 9.19 ± 0.38 |
| TTTTTTTTTTTTTTTGCATGTTGTTTAATGTATTGT [TGCATGCA_site772] | 8.73 ± 0.5 |
| TATCATTTTATTATTCTACACACTTATCTATAATTA [CACACA_site7894] | 8.87 ± 0.56 |
| AAATATTTTTTTTCTACACACATACAAATATAGATT [CACACA_site7164] | 8.88 ± 0.54 |
| ATGCCCCATATAAACACACAAATAAAAAGAATATAC [CACACA_site7292] | 9.31 ± 0.45 |
| TATATTTTATAAAAAAGTACACATGAAAATGTATTT [XGTACX_site5889] | 8.49 ± 0.47 |
| ATATTTAAAGAATAAGTGCAAAATGTAATTAATTTT [GTGCAC_site9901] | 8.76 ± 0.42 |
| TATTTATTACTATGTAAACACACATGCAATATATGT [CACACA_site8288] | 9.1 ± 0.42 |
| TGTAGTCTGGAGAAACGTACACAGTATCTGGTAACA [XGTACX_site4938] | 8.7 ± 0.43 |
| AAAGGGGATATATGAACACACAAAAAAAAAATATAT [CACACA_site2896] | 9.13 ± 0.68 |
| TTTTTTCCTTTTAATTGTACACAGATATAATATATT [XGTACX_site2230] | 8.67 ± 0.47 |
| AAATTTTATTATAGCAGTACAATATAATATTATTAA [XGTACX_site1971] | 8.43 ± 0.47 |
| TGGTATGTTTTACAAAGTACCCATCGATTCTTATGT [XGTACX_site2822] | 8.82 ± 0.51 |
| ATATATATATATATATGTACTTATATATAATATAGA [XGTACX_site3488] | 9.22 |
| GTACTCTTCTCCAGACTGCACTATACGACTCGTACA [GTGCAC_site9770] | 9.1 ± 0.37 |
| AATATATTTTTCTACCGTACATAATAAAATATATAT [XGTACX_site1777] | 8.68 ± 0.42 |
| GAACCACTAAAATGAGCATGCTCATATTTACATATA [TGCATGCA_site1033] | 8.83 ± 0.34 |
| TATTTATTTATTTATTGTACATAAGTATATATTATA [XGTACX_site6566] | 8.63 ± 0.44 |
